Where “and” joins values, the source holds several entries; their conditions need not be identical. Identical values can stand only once. Hit rate of the full screen: of about 310,000 compounds, about 18,000 (5.8%) were called active. The inconclusive results got no clear call from the source; some entries with a clear call stand among them for comparison. Calls come from the whole dose curve; as a rule, active = well fitted inhibition curve with a large enough effect; inconclusive = small, poorly fitted or top-dose-only effect, or another doubt; inactive = no such curve, though single readings can be large or run the other way. No potency is given beside an inconclusive call; the fits are too rough. More than one record can exist for a structure, and the calls need not agree.
test: Primary qHTS for delayed death inhibitors of the malarial parasite plastid, 48 hour incubation; details: P. falciparum luciferase growth in erythrocytes; series mostly up to 28.7 µM
How it was run: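 Luciferase-expressing P. falciparum in infected erythrocytes (2% hematocrit, 0.1% parasitemia final) in RPMI 1640/0.5% Albumax were exposed to compound for 48 hours at 37 C, 5% CO2; growth read as luminescence.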
Potency is the fitted concentration of half-maximal effect; tags give direction and shape of the fitted curve.

| Compound | Potency |
| --- | --- |
| O=C(CCl)NN1C(=O)NC2(CCCCC2)C1=O | inconclusive [inhibitor, partial curve, poor fit] |
| COc1ccc(CCN(C)C(=O)c2cc(S(=O)(=O)N3CCCCC3)ccc2Cl)cc1OC | active: 13.1 µM |
| CN(C)CCNC(=O)c1cc2c(s1)-c1ccc(Cl)cc1SC2 | active: 2.62 µM |
| COc1ccc(CC(=O)N2CCCC(CNC(=O)c3ccccc3Cl)C2)cc1 (stereo unspecified) | inactive |
| CC(C)(C)C(=O)[C@H]1[C@H](c2ccccc2)[C@@]2(N=C(c3ccccc3)OC2=O)C2c3ccccc3C=NN21 (stereo partly specified) | inconclusive [inhibitor, single point] |
| CCOC(=O)c1[nH]c(C)c(C(=O)OCC(=O)N(Cc2ccccc2)C(C)C)c1C | inconclusive [inhibitor, partial curve, poor fit] |
| Cc1ccc(-n2sc3ccccc3c2=O)cc1S(=O)(=O)N1CCCCC1 | active: 2.62 µM |
| CCS(=O)(=O)Nc1ccc(C2=NN(C(=O)c3ccco3)C(c3cccc(F)c3)C2)cc1 (stereo unspecified) | inconclusive [inhibitor, partial curve, poor fit] |
| CCCC(=O)Nc1ccc(NC(=O)Cc2ccccc2)cn1 | inactive |
| CCCCc1nc(Cl)c(CO)n1Cc1ccc(-c2ccccc2-c2nn[nH]n2)cc1 | inactive and active: 13.5 µM |
| NC1=NC2(CCN(Cc3ccccc3)CC2)n2c(nc3ccccc32)N1 | inconclusive [inhibitor, single point] |
| Cc1occc1C(=O)Nc1nnc(-c2cccs2)s1 | inactive |
| CCOC(=O)NC(=S)Nc1ccc(C(C)(C)C)cc1Br | inconclusive [inhibitor, single point] |
| CC1=CN2C(=NC(=O)CC2(C)C(=O)N(CC(=O)NC2CCCC2)Cc2ccc(Cl)cc2)C=C1 (stereo unspecified) | inactive |
| COc1cc(C2/C(=C(/O)c3ccc(F)cc3)C(=O)C(=O)N2CCCC(=O)O)ccc1O (stereo unspecified) | inconclusive [inhibitor, partial curve, poor fit] |
| COc1cccc(-c2nnc(NC(=O)c3ccc(S(=O)(=O)N4CCOCC4)cc3)o2)c1 | inconclusive [inhibitor, single point] |
| CCCCCC[C@@H](O)C/C=C\CCCCCCCC(=O)O | inactive |
| Cc1cn2c(-c3ccc(Cl)cc3)nnc2s1 | inconclusive [inhibitor, single point] |
| COCCn1c(SCC(=O)c2c[nH]c3ccccc23)nnc1-c1ccncc1 | inconclusive [inhibitor, single point] |
| COC(=O)c1cccc(NC(=O)c2cnccn2)c1 | inactive |
| COC(=O)/C=C1/SC(=Nc2ccc(C)cc2C)NC1=O | inconclusive [inhibitor, full curve, poor fit] |
| CCc1ccc2[nH]c3nc(SCC(=O)NCC4CCCO4)nnc3c2c1 (stereo unspecified) | inactive |
| CCOCCOC(=O)c1[nH]c2c(c1C)C(=O)CC(c1ccc(N(C)C)cc1)C2 (stereo unspecified) | inconclusive [inhibitor, partial curve] |
| Cc1ccc(CNC(=O)c2cc(-c3cc(C)cc(C)c3O)n[nH]2)cc1 | inconclusive [inhibitor, single point] |

| Compound | Potency |
| --- | --- |
| CN(C#N)c1nccc(-c2cccs2)n1 | inconclusive [inhibitor, single point] |
| COc1cccc(/C=C2\Sc3ccc(C(=O)NCc4cccnc4)cc3N(C)C2=O)c1 | inconclusive [inhibitor, single point] |
| Cc1ccc(C(=O)Nc2ccc(N3CCCC3)cc2)c(C)c1 | inconclusive [inhibitor, full curve, poor fit] |
| Cc1ccc(CN2CCN(CCC(C)C)C(CCO)C2)s1 (stereo unspecified) | inactive |
| O=C(Nc1ccc(-n2ccc(C(F)(F)F)n2)cc1)c1cccs1 | inconclusive [inhibitor, partial curve] |
| O=c1c2ccccc2nc(-c2ccc(Cl)cc2Cl)n1-c1nccs1 | inconclusive [inhibitor, single point] |
| CC1=CCC2CC1C2(C)C (stereo unspecified) | inactive |
| CCCOc1ccc(S(=O)(=O)n2cc(Br)c(=O)[nH]c2=O)cc1 | inconclusive [inhibitor, full curve, poor fit] |
| CNCC(O)c1ccc(OC(=O)C(C)(C)C)c(OC(=O)C(C)(C)C)c1 (stereo unspecified) | inconclusive [inhibitor, single point] |
| COc1ccc(OC)c(S(=O)(=O)N(C)CC(=O)N2CCc3ccccc3C2)c1 | inconclusive [inhibitor, full curve, poor fit] |
| O=C(CCC(=O)N1CCN(S(=O)(=O)c2ccc(Cl)cc2)CC1)NC1CCCc2ccccc21 (stereo unspecified) | inconclusive [inhibitor, single point] |
| CCn1c(=O)c(C(C)=O)nc2ccccc21 | inactive |
| c1ccc(-[n+]2nc(Nc3cccc4ccccc34)sc2-c2c3ccccc3cc3ccccc23)cc1 | active: 1.04 µM |
| COC(=O)C1CCCN1S(=O)(=O)c1ccccc1NC(=O)c1cc(OC)c(OC)c(OC)c1 (stereo unspecified) | inconclusive [inhibitor, single point] |
| O=C(Nc1nnc(-c2ccco2)o1)c1ccc(S(=O)(=O)N2CCCC2)cc1 | active: 11.7 µM |
| Cc1oc2ccc(Br)cc2c(=O)c1-c1nn[nH]n1 | inactive |
| COCCNc1nc(C(C)(C)C)nc2c1nnn2Cc1ccccc1Cl | active: 8.28 µM |
| Cc1nn(C)c(C)c1/C=C(/C(=O)C(C)(C)C)n1cncn1 | inactive |
| Cc1cnc(NC(=O)c2ccc(F)c(S(=O)(=O)N3CCOCC3)c2)s1 | inconclusive [inhibitor, single point] |
| Cc1cc(N2CCOCC2)nc2ccc(Cl)cc12 | inactive |
| CC1CCC(NC(=O)c2cccc(S(=O)(=O)NCc3ccccc3)c2)CC1 (stereo unspecified) | inconclusive [inhibitor, single point] |
| Cc1c(NS(=O)(=O)c2ccc(N)cc2)c(=O)n(-c2ccccc2)n1C | inconclusive [inhibitor, full curve, poor fit] |
| CCc1ccc(OCC2c3cc(OC)c(OC)cc3CCN2C(=S)NC)cc1 (stereo unspecified) | inconclusive [inhibitor, full curve, poor fit] |
| COCCCNC(=O)Cn1nnc(-c2ccc(NC(=O)c3ccccc3F)cc2)n1 | inactive |

| Compound | Potency |
| --- | --- |
| Cc1ccc(C)c(NC(=S)NC(C)C(c2ccccc2)N2CCN(C)CC2)c1 (stereo unspecified) | inconclusive [inhibitor, single point] |
| COc1ccc(C2(O)CCN(C(=O)NC3CCCCC3)CC2)cc1 | inactive |
| CC(=O)N(c1ccccc1)c1nc(/C=C/C(=O)Nc2c(C)cc(C)cc2C)cs1 | inconclusive [inhibitor, single point] |
| N#CC(C#N)=Cc1ccc(OCC(=O)N2CCOCC2)cc1 | inconclusive [inhibitor, single point] |
| CN1CCCC(OC(=O)c2ccc(C(C)(C)C)cc2)C1 (stereo unspecified) | inconclusive [inhibitor, single point] |
| CC1CCCCC1NC(=O)COC(=O)c1ccccn1 (stereo unspecified) | inactive |
| CCOC(=O)COn1c(-n2nc(C)cc2C)nc2ccccc2c1=O | active: 3.7 µM |
| CCCCCCNC1=NCCS1 | inconclusive [inhibitor, single point] |
| CCc1cc(C(=O)N2CCCC(CO)(Cc3ccc(F)cc3)C2)n(C)n1 (stereo unspecified) | inactive |
| Cc1ccccc1-n1nc(C)c2cc(C(=O)NCc3cccnc3)sc21 | inconclusive [inhibitor, single point] |
| CC(C)c1ccc(OCC(=O)NC2CC(C)(C)NC(C)(C)C2)c(Br)c1 | inconclusive [inhibitor, partial curve, poor fit] |
| COc1ccc2c(c1)C(c1ccc(Cl)cc1)NC(=O)C2 (stereo unspecified) | inconclusive [inhibitor, full curve, poor fit] |
| COc1cc(OC)cc(C(=O)Nn2cc(C(=O)Nc3ccccc3F)c3ccccc3c2=O)c1 | inactive |
| COc1ccc(C2CC(c3ccc4ccccc4c3OC(C)=O)=NN2C(C)=O)cc1 (stereo unspecified) | inconclusive [inhibitor, single point] |
| COc1ccc(CC(=O)OCCc2cc3cc(OC)c(OC)cc3c(=O)o2)cc1 | inconclusive [inhibitor, partial curve] |
| CCC(=O)N1CCc2cc(Br)cc(S(=O)(=O)N(C)c3ccc(OC)cc3)c21 | inconclusive [inhibitor, full curve, poor fit] |
| Cc1ccc(S(=O)(=O)NCCc2ccncc2)cc1 | inactive |
| CN(C)c1ccc(C(=C2C=CC(=[N+](C)C)C=C2)c2c(O)c(S(=O)(=O)[O-])cc3cc(S(=O)(=O)O)ccc23)cc1 | inconclusive [inhibitor, partial curve] |
| c1csc(-c2nc3c4ccccc4c4ccccc4c3[nH]2)c1 | inconclusive [inhibitor, single point] |
| C=CCc1cc(/C=C2/NC(=O)NC2=O)cc(OCC)c1O | inactive |
| Cc1cc(=O)oc2c(C)c(OCC(=O)NCCCN3CCCC3=O)ccc12 | inactive |
| COc1ccc(CCN(C)CC(=O)Nc2ccc(F)c(Cl)c2)cc1OC | inconclusive [inhibitor, full curve, poor fit] |
| Cc1nn(C)cc1CN(C)C(=O)c1nn2c(c1Cl)NC(c1cccs1)CC2C(F)(F)F (stereo unspecified) | inconclusive [inhibitor, single point] |
